# Source: the RNAGym collection of RNA variant scans (doi:10.7554/elife.90254)
# The source gives no read counts; variants with many changes may rest on few reads.
# B1: LINE1-mini (parent)
# chain: GGCAGAGCUCAACACAGCGUGGCAAAGUGGCUGUGGCUAGACUGCC
# Variants of: B1
# Test: self-cleavage, relative activity (ratio to wild type); higher = more cleavage; in vitro, sequencing; the parent is a self-cleaving ribozyme
row,Variant,self-cleavage
1,GGCUGAGCUCAACACAGUGUGGCAAAGUGGCUGUGGCUAUACCGCC [A4U C18U G40U U43C],0.02
2,GGCAGAGCUAAACACAGCGUGGCAAAGUGGUUGUGGCUAGAAUGAC [C10A C31U C42A C45A],0.02
3,GGCUGAGCUCAACACAGCGUGGGUAAGUGGCUUUGACUAGACUGCC [A4U C23G A24U G33U G36A],0.05
4,CGCUGAGCUCAACACAGCGUCGCCAAGUGGCUGUAGCUAGACUGCC [G1C A4U G21C A24C G35A],0.04
5,GGCAGAGCUCAACAGAGCGUGGCAAAAUGGCUGUUGCUAAACUGCC [C15G G27A G35U G40A],0
6,GGCAGAGCUCAAACCAGCGUGGCAAAGUGGCCGUGGCUAGACUGCC [C13A A14C U32C],0.08
7,GGCAGACCUUAACACAUCGUGGCAAAGUGGCGGUGCCUAGACUGCC [G7C C10U G17U U32G G36C],0.03
8,GGCAGUGCUGAACACAGCUUGGCAAAGUGGCUGUGGCUAGACUGCC [A6U C10G G19U],0.12
9,GGCCGAGCUCAACUCAGUGUGGCAAAGUGGCUGUGGCUAGACUGCC [A4C A14U C18U],0.18
10,GGCAGAGGUCAACCCAGCGUGGCAAAGUGGCUGUGGCUAGUCUGCC [C8G A14C A41U],0.1
11,GGCAGAGCACUACACAGCGUGGCAAAGUGUCUGAGGCUAGACUGCC [U9A A11U G30U U34A],0.03
12,GGCAGAGCUCAUCACAGCGUAGCAAAGUGGCUGUGGCCAGACUGCC [A12U G21A U38C],0.2
13,CGCUGGGCUCAACACAGCGUGGCAAAGUGGCUGUGGCUAGACUGCC [G1C A4U A6G],0.06
14,GUCAGAGCUCCACACCGCGUGGCAAAGUGGCUGUGGCUAGACUGCC [G2U A11C A16C],0.03
15,GACAGAGCUUAACACUGCGUGGCAAAGUGGCUGUGGCUAGACUGCC [G2A C10U A16U],0.06
16,GGCAGAGCUCAACACAGCGUGAAAAAGUGGCUGGGGCUAGACUGCC [G22A C23A U34G],0.44
17,GGUGGAGCUCAACACAGCGUGGCAAAAUGGCUGUGGCUCGACUGCC [C3U A4G G27A A39C],0.03
18,GGCACAGCUUAACACAGAGUAGCAAAGUGGCUGUGGCUAGACUGCC [G5C C10U C18A G21A],0.03
19,GGCACAGCUCAACAUAGCGUGGCAAUGUGGCUGUGGCUAGACUGCG [G5C C15U A26U C46G],0.02

row,Variant,self-cleavage
1,GGAAGAGCUCAACACAGCGAGGCAAAGUGUCCGUGGCUAUACUGCC [C3A U20A G30U U32C G40U],0.17
2,GGCAUAGCUCAACACAGCGUGGCAAGGUGGCUGCGGCUAGACUGCC [G5U A26G U34C],0.05
3,GGCAGAGCUCUACACCGCGUGGUAAAGUGGCUGUGGCUAGACUGCC [A11U A16C C23U],0.01
4,GCGAGAGCUCAACACAGCGUGGCAAGGUGGCUGUGACUGGAAUGCC [G2C C3G A26G G36A A39G C42A],0.05
5,GGCAGAGCUCAACACAGCGUGGCUAAGUGGCUGUGCCUAGAUUGCC [A24U G36C C42U],0
6,GUCAGAGCUCAGCACAACGUGGCAAAGUGGGUGUGGCUAGAUUGCC [G2U A12G G17A C31G C42U],0.49
7,GGCAGAGCUCGAAACAGCGUGGCAAAGUGGCGGUAGCUAGACUGCC [A11G C13A U32G G35A],0.04
8,GGCAGUGCUCAACACAGCGUGGCAAGGUGGAUGUGGCUAGACUGCC [A6U A26G C31A],0.14
9,GGCAGAUCUCAAGACAACGAGGCAAAGUGGCUGUGGCUAGACUGCC [G7U C13G G17A U20A],0.15
10,GGUAGAGCUCAACAACGCGUGGCAAAGUGGCUGUGCCUAGACUGCU [C3U C15A A16C G36C C46U],0.01
11,GGCAGAGCUCAACCCAGAGUGUCCAAAUGGCUGUUGCUAGACCGCC [A14C C18A G22U A24C G27A G35U U43C],0.01
12,GGCAGAGCUCAACUCCGCGUCGCGAAGUGGCUGUGGCUAGACUGCC [A14U A16C G21C A24G],0.02
13,GGCAGAGCUCAACACAGCGUGGCAAAGUGGCUAUGGCAAGAGUGCC [G33A U38A C42G],0.04
14,GGCAGAGCUCAACACAGCGUGGCAAAGUGUUUGUGGCCAGACUGCC [G30U C31U U38C],0.06
15,GACAUAGCUCAAGACAGCGUGGCAAAGUGGCUGUGGCUAGACUGCC [G2A G5U C13G],0.19
16,GGCAUAGCUCAACUCAGCGUGACAAAGUGGCUGUGGCUAGCUUGCC [G5U A14U G22A A41C C42U],0.02
17,GGCGGAGCUCAAUACAGCGUGGCAAAGUGGCUGUGGCUAUACUGCC [A4G C13U G40U],0.16
18,UGCAGAGCUCAACACAGCGUGGCAAAGUGUCUGUGGCUAGCCUGCC [G1U G30U A41C],0.01
19,GGCACAGCUCAACAAAGCGUGGCAAAAUGGCUGUUGCUAGACUGCC [G5C C15A G27A G35U],0.02

row,Variant,self-cleavage
1,GGCAGAGCUCGACACAGCGUGGCAAAGUGGCUGUGGCUAGACUUGC [A11G G44U C45G],0
2,GACAGAGCUCAACAAAUCGUGGCAAAGUGGCUGUUGCUACUCUGCC [G2A C15A G17U G35U G40C A41U],0.09
3,GGCAGAGCUGAACACAGCUUGGCAAAGUGGUUGUGGCUAGACUGCC [C10G G19U C31U],0.13
4,GGCAGAGCUCAAUACAGCGUGGCAAUGUAGCUGUGGCUACACUGCC [C13U A26U G29A G40C],0.01
5,GGCAGAGCUCAACACAGCCUGGAAAAGUGGCUGUGGCUGGACUGCC [G19C C23A A39G],0.08
6,GGCUGAGCUCAACACAGCGUGGCAAAGUGGCAGUGGCUAGAGUGCC [A4U U32A C42G],0.04
7,UGCAGAGCCCAACACAGCAUGGCACUGUGGCUUUGGCUAGACUGUC [G1U U9C G19A A25C A26U G33U C45U],0.04
8,GGCAAAGCGCAACACAGCGUGGCAACGUGGCUGUGGCCAGACUGCC [G5A U9G A26C U38C],0.16
9,GGCAGUGCUCAACACACCGUGGCAAAGUGGAUGUGGCUAGACUGCC [A6U G17C C31A],0.37
10,GGAAGAGUUCAACACAGCGUGGCAAAGUGGCUGUGGUUAGAAUGCC [C3A C8U C37U C42A],0.03
11,UGCAGAGCUCAACUCAGCGUGGCAAAGUGGCUGUGCCUAGACUGCU [G1U A14U G36C C46U],0.03
12,GGCAGAGCUCAACACAGCGUGGCAAAGUGUCUCUGGGUAGACUGUC [G30U G33C C37G C45U],0.02
13,GGCAGAGCACAUCACAGCGUGGCAAAAUGGCUGUUGCUACACUGCC [U9A A12U G27A G35U G40C],0
14,GGCCUAGCUCAACAAAGCGUGGCAAAGGGGCUGUGGCUAGACUGCU [A4C G5U C15A U28G C46U],0.03
15,GGCAGUGCUCAACUCAGCGUGGCAAAGUGGCAGUGGCUAGACUUCC [A6U A14U U32A G44U],0.04
16,UUAAGAGCACAACACAGCGUGGCAAAGUGGCUGUGGCUAGACUGCC [G1U G2U C3A U9A],0.25
17,GGCAGAGCUCAUCACAACGUGACAAAGUGGCUUUGGCUAGACUGCC [A12U G17A G22A G33U],0.01
18,GGUAGGGCUCAACACUGCGGGGCAAAGUGGCUGUGGCGAGACUGCC [C3U A6G A16U U20G U38G],0.1
